29 compounds from PubChem BioAssay AID1745853 (National Center for Advancing Translational Sciences (NCATS), 2022) can be followed below.

Holding throughout (test): Primary Screen for Target Class Profiling of Small Molecule Inhibitors of Methyltransferases
For assay [1], the target named is Glycine N-methyltransferase (Homo sapiens) (UniProt Q14749). The note with it: purified enzyme, MTase-Glo SAH luminescence; measured here: GNMT inhibition; at 40 µM; stronger effect = lower value. An outline of the steps: (§1)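 Each enzyme was reacted with SAM and its substrate, with compounds tested once at 40 uM; SAH formed was read by MTase-Glo luminescence.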
Assay [2] concerns the target Guanidinoacetate N-methyltransferase (Homo sapiens) (UniProt Q14353). The settings on record: purified enzyme, MTase-Glo SAH luminescence; measured here: GAMT inhibition; at 40 µM; stronger effect = lower value. An outline of the steps: as §1
Assay [3] concerns the target Histamine N-methyltransferase (Homo sapiens) (UniProt P50135). The note with it: purified enzyme, MTase-Glo SAH luminescence; measured here: HNMT inhibition; at 40 µM; stronger effect = lower value. An outline of the steps: as §1
Assay [4] concerns the target Nicotinamide N-methyltransferase (Homo sapiens) (UniProt P40261). The settings on record: purified enzyme, MTase-Glo SAH luminescence; measured here: NNMT inhibition; at 40 µM; stronger effect = lower value. An outline of the steps:
as §1

In assay [5] the target is Phenylethanolamine N-methyltransferase (Homo sapiens) (UniProt P11086). The settings on record: purified enzyme, MTase-Glo SAH luminescence; measured here: PNMT inhibition; at 40 µM; stronger effect = lower value. An outline of the steps: as §1

This is one part of the list. Further columns of the screen follow, without active or inactive calls.
% is scaled to controls: 0 for no effect and ±100 for the full control effect.

For the compound `COc1cc(C)c(C(=O)O[C@H]2[C@@H](O)[C@H](n3ccc(=O)[nH]c3=O)O[C@@H]2CO)c(OC)c1`, the activity change, negative = inhibition was 4.29% in assay [1]; -0.589% in assay [2]; 5.64% in assay [3]; -9.85% in assay [4]; -0.159% in assay [5].
In the case of `COc1ccc(OC)c(S(=O)(=O)N2CCN(S(=O)(=O)c3cc(OC)ccc3OC)CC2)c1`, the activity change, negative = inhibition in assay [1] was -8.99%; in assay [2], 0.735%; in assay [3], -3.64%; in assay [4] it was -5.24%; in assay [5], -6.33%.
For `CCCC1c2ccc(C)n2CCN1C(=O)NCc1ccc(F)cc1` (stereo not given), the activity change, negative = inhibition is -4.62% in assay [1]; 0.122% in assay [2]; -10.1% in assay [3]; -0.902% in assay [4]; -8.59% in assay [5].
For `COc1ccccc1CNC(=O)C1c2c(n(C)c3ccccc23)SCC(=O)N1c1cc(Cl)ccc1OC` (stereo not given), the activity change, negative = inhibition in assay [1] was 13.2%; in assay [2] it was 2.66%; in assay [3], 7.64%; in assay [4], 9.26%; in assay [5], 10.8%.
For `O=C(NCCCc1ccccc1)c1ccc2c(=O)nc3c(-c4cccc(F)c4)n[nH]n3c2c1` the same measures were -0.85%, 0%, 6.87%, -4.46% and -0.415%.
Turning to `O=C(NC1CCCCCC1)c1ccc2c(c1)CC(=O)N2Cc1cccc(F)c1`, the activity change, negative = inhibition in assay [1] is -5.45%; in assay [2], -5.3%; in assay [3] it was -2.6%; in assay [4], -5.61%; in assay [5] it was -5.29%.
For `Cc1cc(C(F)(F)F)nc(CNc2cc(C3CC(O)C3)nc(N)n2)n1` (stereo not given) the same measures were -0.798%, -13.7%, -2.94%, -9.73% and -7.23%.
With `Cc1ccc(Cn2c(=O)c3ccc(C(=O)NC(C)C)cc3n3c(=O)n(Cc4cccc(Cl)c4)nc23)cc1`, the activity change, negative = inhibition was determined as 7.79% in assay [1]; 0% in assay [2]; 8.68% in assay [3]; 14.7% in assay [4]; 11.6% in assay [5].
For `Cc1noc(C)c1-c1cc2c(cc(C)n2CCN(C)C)c(Nc2ccncn2)n1` the same measures were -71.3%, -60.2%, -82.8%, -64.4% and -51.2%.
As for `COc1c(C)c(OCC=C(C)C)cc2c1COC2=O`, the activity change, negative = inhibition was 0% in assay [1]; -0.916% in assay [2]; -1% in assay [3]; -21.4% in assay [4]; -6.17% in assay [5].
For the compound `CC1CCCC(NC(=O)C2(C)Cn3c(cc4sccc43)C(=O)N2C2CCCCCC2)C1C` (stereo not given), the activity change, negative = inhibition in assay [1] was 2.44%; in assay [2], 0%; in assay [3] it was 4.06%; in assay [4], -2.07%; in assay [5] it was 2.22%.
For `CC1CCN(S(=O)(=O)c2ccc3c(ccn3CC(=O)NCc3ccc(OC(C)C)cc3)c2)CC1`, the activity change, negative = inhibition came to 5.48% in assay [1]; 0.969% in assay [2]; 3.33% in assay [3]; 3.87% in assay [4]; 1.23% in assay [5].
Take `Cc1nn(C)c(C)c1S(=O)(=O)NCCc1noc(-c2cccnc2)n1`: the activity change, negative = inhibition in assay [1] is -2.52%; in assay [2], 0.649%; in assay [3] it was 0.986%; in assay [4], -2.27%; in assay [5], -2.81%.
Turning to `CC(C)CCNC(=O)C1c2c(n(C)c3ccccc23)SCC(=O)N1c1ccccc1F` (stereo not given), the activity change, negative = inhibition in assay [1] was 7.81%; in assay [2], 3.11%; in assay [3], 2.12%; in assay [4], -2.75%; in assay [5], 3.96%.
Regarding `Cc1nn(C)c(C)c1CCN(C)C(=O)C1CCN(C(=O)N2CC3CC(C2)[C@H]2CCCC(=O)N2C3)CC1` (stereo not given in full), the activity change, negative = inhibition is -4.24% in assay [1]; -5.96% in assay [2]; -2.56% in assay [3]; -9.19% in assay [4]; 0.892% in assay [5].
Consider `CCCN1CCN(C(=O)c2ccc3c(c2)n(CC)c(=O)c2ccnn23)CC1`, for which the activity change, negative = inhibition in assay [1] is -8.12%; in assay [2], -5.35%; in assay [3], -35.8%; in assay [4], -14.9%; in assay [5], -1.37%.
In the same order, the values of `COc1ccc(-c2ccn(CC[C@](C)(C(=O)NO)S(C)(=O)=O)c(=O)c2)c(F)c1` are 1.23%, 3.11%, 11.1%, -8.11% and 6.11%.
For the compound `COc1ccc(N2CCN(C(=O)c3cc4c(s3)CN(C3CCCC3)C4)CC2)cc1`, the activity change, negative = inhibition in assay [1] is -1.17%; in assay [2], -0.782%; in assay [3] it was -2.17%; in assay [4] it was -2.58%; in assay [5] it was 10.1%.
For `CCc1ccc(S(=O)(=O)c2nnn3c2nc(N2CCC(C(N)=O)CC2)c2cc(Cl)ccc23)cc1` the same measures were -23%, 3.59%, -10.3%, -10.4% and -7.06%.
For the compound `CC1CCC(NC(=O)C2(C)Cn3c(cc4occc43)C(=O)N2Cc2ccco2)CC1` (stereo not given), the activity change, negative = inhibition in assay [1] is -14.9%; in assay [2] it was -0.496%; in assay [3] it was -5.89%; in assay [4] it was -3.38%; in assay [5], -8%.
In the same order, the values of `COC(=O)COc1ccc2c(-c3ccccc3)cc(=O)oc2c1C` are -5.27%, -1.1%, -4.08%, -15.4% and -17.1%.
In the case of `Cc1ccc(S(=O)(=O)Nc2ccc3c(c2)CN(CCc2ccc(F)cc2)C(=O)C(C)O3)cc1F` (stereo not given), the activity change, negative = inhibition was -8.38% in assay [1]; -12% in assay [2]; -4.97% in assay [3]; -24.4% in assay [4]; -10.2% in assay [5].
As for `Cc1ccc(-n2ncc3c2CC(C)(C)CC3NS(=O)(=O)c2cn(C)cn2)cc1` (stereo not given), the activity change, negative = inhibition in assay [1] is -9.2%; in assay [2], -11.7%; in assay [3], -4.89%; in assay [4], -13.9%; in assay [5], -7%.
As for `c1ccc(-c2cc3c(cn2)NCCN(CC2CC2)C3)cc1`, the activity change, negative = inhibition in assay [1] was -17.6%; in assay [2], -13.9%; in assay [3], -72.8%; in assay [4] it was -31.3%; in assay [5], -31.5%.
As for `COc1ccccc1OCCNCC(O)CCOc1cccc2[nH]c3ccccc3c12` (stereo not given), the activity change, negative = inhibition in assay [1] was -3.01%; in assay [2] it was 5.44%; in assay [3], -8.38%; in assay [4] it was -16%; in assay [5], -91.6%.
For `O=c1c2ccccc2n2c(=O)n(Cc3ccccc3)nc2n1Cc1ccccc1` the same measures were 2.62%, 4.59%, 7.41%, 4.31% and 2.14%.
For `COc1cc(N2CCC(N3CCN(C)CC3)CC2)ccc1Nc1ncc(Cl)c(Nc2ccccc2S(=O)(=O)C(C)C)n1` the same measures were -56.8%, 6.35%, -54.6%, -6.23% and -5.61%.
`CCc1ccc(S(=O)(=O)c2nnn3c2nc(NC(C)C)c2cc(Cl)ccc23)cc1`: the activity change, negative = inhibition was -3.05% in assay [1]; 0.041% in assay [2]; -2.62% in assay [3]; -11.2% in assay [4]; -3.71% in assay [5].
Regarding `CC1(C)CC[C@]2(C(=O)O)[C@H](O)C[C@]3(C)C(=CCC4[C@@]5(C)CC[C@H](O[C@@H]6O[C@H](CO[C@@H]7OC[C@H](O)[C@H](O)[C@H]7O[C@@H]7OC[C@H](O)[C@H](O)[C@H]7O)[C@@H](O)[C@H](O)[C@H]6O)C(C)(C)C5CC[C@]43C)[C@@H]2C1` (stereo not given in full), the activity change, negative = inhibition in assay [1] was 4.03%; in assay [2], 3.25%; in assay [3], 10.3%; in assay [4], -10.6%; in assay [5], 5.8%.
